From the supplement of paper PMC7826260
This is one part of the list. Cleavage of a single-stranded DNA pool by Rep nickase domains was read by sequencing (1 h at 37 °C, 3 µM enzyme); the outer parts of the 90-letter strands are left off. Numbers give uncut DNA relative to the enzyme-free pool, as log2; strong cutting gives strongly negative numbers. There is no active / inactive call. Shares of all reads are compared, so uncut sequences can rise above 0 when many others are cut.

Experiments:
Assay in all cases: uncleaved DNA left, log2 of reads against the no-enzyme library (log2 ratio); higher = less cleavage (more negative = more Rep cleavage of the k-mer); sequences stand for … in CTCGTCCG…ACCGGAGA
[1] = system: T1, Rep nickase domain of Muscovy duck circovirus
T1 sequence (residues 1-111 of Rep, tag left off): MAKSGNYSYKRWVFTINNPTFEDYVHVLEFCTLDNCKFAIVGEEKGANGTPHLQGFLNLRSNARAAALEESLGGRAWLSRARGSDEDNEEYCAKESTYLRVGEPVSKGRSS
Procedure: (§1)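 A pool of 90-nt single-stranded DNAs with seven random bases just before the constant AC of the nick site (name = the seven bases) was cut by 3 µM recombinant His6-SUMO-tagged Rep nickase domain (300 nM DNA, 50 mM HEPES pH 8.0, 50 mM NaCl, 1 mM MnCl2, 1 h, 37 °C, three replicates). Uncut DNA was amplified and sequenced.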

[2] = system: T2, Rep nickase domain of banana bunchy top virus
T2 sequence (residues 1-94 of Rep, tag left off): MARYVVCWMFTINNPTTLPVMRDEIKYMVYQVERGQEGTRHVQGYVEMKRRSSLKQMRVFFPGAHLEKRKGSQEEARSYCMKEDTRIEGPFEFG
Procedure: as §1

[3] = system: T3, Rep nickase domain of cabbage leaf curl virus
T3 sequence (residues 1-116 of Rep, tag left off): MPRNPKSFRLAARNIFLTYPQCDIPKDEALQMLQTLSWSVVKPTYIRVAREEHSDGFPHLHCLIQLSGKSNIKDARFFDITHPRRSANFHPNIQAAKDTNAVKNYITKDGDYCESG
Procedure: as §1

[4] = system: T4, Rep nickase domain of chickpea chlorotic dwarf virus
T4 sequence (residues 1-124 of Rep, tag left off): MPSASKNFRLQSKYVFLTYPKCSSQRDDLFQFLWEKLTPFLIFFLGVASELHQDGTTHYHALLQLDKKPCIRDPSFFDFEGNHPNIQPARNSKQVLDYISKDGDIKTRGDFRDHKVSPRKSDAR
Procedure: as §1

[5] = system: T5, Rep nickase domain of faba bean necrotic yellows virus
T5 sequence (residues 1-98 of Rep, tag left off): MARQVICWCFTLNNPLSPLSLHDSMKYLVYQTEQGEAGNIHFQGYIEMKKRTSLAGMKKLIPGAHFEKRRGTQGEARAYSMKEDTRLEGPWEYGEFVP
Procedure: as §1

[6] = system: T6, Rep nickase domain of maize striate mosaic virus
T6 sequence (residues 1-117 of Rep, tag left off): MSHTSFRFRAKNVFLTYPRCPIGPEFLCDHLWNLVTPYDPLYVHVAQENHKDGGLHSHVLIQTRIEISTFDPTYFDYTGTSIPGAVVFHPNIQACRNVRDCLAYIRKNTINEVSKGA
Procedure: as §1

[7] = system: T7, Rep nickase domain of porcine circovirus 2
T7 sequence (residues 2-116 of Rep, tag left off): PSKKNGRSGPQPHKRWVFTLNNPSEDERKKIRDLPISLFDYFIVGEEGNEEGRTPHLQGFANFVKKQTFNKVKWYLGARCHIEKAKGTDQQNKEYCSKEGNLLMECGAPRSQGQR
Procedure: as §1

[8] = system: T8, Rep nickase domain of tomato golden mosaic virus
T8 sequence (residues 1-124 of Rep, tag left off): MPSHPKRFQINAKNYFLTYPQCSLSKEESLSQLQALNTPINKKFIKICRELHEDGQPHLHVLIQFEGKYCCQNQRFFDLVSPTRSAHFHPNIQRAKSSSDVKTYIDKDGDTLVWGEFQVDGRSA
Procedure: as §1

[9] = system: T9, Rep nickase domain of tomato yellow leaf curl virus
T9 sequence (residues 1-136 of Rep, tag left off): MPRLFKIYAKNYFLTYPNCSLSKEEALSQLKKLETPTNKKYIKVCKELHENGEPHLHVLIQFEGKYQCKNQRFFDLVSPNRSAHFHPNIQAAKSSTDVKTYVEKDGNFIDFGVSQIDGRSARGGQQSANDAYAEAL
Procedure: as §1

[10] = system: T10, Rep nickase domain of wheat dwarf virus
T10 sequence (residues 1-137 of Rep, tag left off): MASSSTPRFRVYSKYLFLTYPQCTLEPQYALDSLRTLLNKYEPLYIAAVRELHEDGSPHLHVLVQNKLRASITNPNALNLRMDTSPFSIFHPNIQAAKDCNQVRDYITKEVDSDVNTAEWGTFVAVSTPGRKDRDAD
Procedure: as §1

Row | Sequence | uncleaved DNA left (log2) [1] | uncleaved DNA left (log2) [2] | uncleaved DNA left (log2) [3] | uncleaved DNA left (log2) [4] | uncleaved DNA left (log2) [5] | uncleaved DNA left (log2) [6] | uncleaved DNA left (log2) [7] | uncleaved DNA left (log2) [8] | uncleaved DNA left (log2) [9] | uncleaved DNA left (log2) [10]
1 | GCCGGCA | 0.0292 | 0.0569 | 0.214 | 0.502 | -0.00582 | 0.224 | 0.0564 | 0.0851 | -0.0453 | 0.0238
2 | AATGTTA | 0.0635 | 0.0688 | -0.234 | -1.33 | 0.0893 | -0.247 | -0.12 | 0.0369 | 0.0482 | -0.0641
3 | CCCAAAA | -0.07 | 0.0897 | -0.0913 | 0.122 | 0.0406 | -0.612 | 0.12 | 0.129 | -0.062 | 0.0552
4 | CGGATCT | 0.0335 | 0.114 | 0.341 | 0.266 | 0.089 | 1.1 | 0.0429 | -0.159 | 0.129 | 0.094
5 | TCGCGAT | -0.0491 | -0.0458 | -0.215 | -0.0211 | 0.0396 | -0.316 | 0.0788 | -0.00958 | -0.106 | -0.243
6 | GAGACTC | 0.03 | 0.0115 | 0.66 | 1.88 | 0.146 | 2.12 | 0.174 | 0.0836 | 0.0736 | 0.242
7 | GTAAAGG | 0.0155 | 0.00828 | 0.431 | 1.14 | -0.000283 | 1.39 | 0.0701 | 0.0483 | -0.0617 | -0.0403
8 | ATCGTTC | 0.163 | 0.0167 | 0.00539 | -0.576 | 0.023 | -0.694 | 0.0395 | 0.137 | 0.00179 | 0.0606
9 | ACATCAA | -0.0297 | 0.0378 | -0.102 | -0.285 | -0.103 | -0.546 | 0.11 | 0.0299 | 0.00957 | 0.0395
10 | AGGGAAA | 0.0158 | 0.0973 | 0.446 | 1.53 | 0.182 | 1.4 | 0.0709 | 0.0858 | -0.0308 | 0.121
11 | TCTTGAT | -0.295 | -0.12 | 0.0396 | -0.0166 | -0.0914 | 0.349 | -2.19 | 0.0179 | -0.1 | -0.109
12 | AACTTGA | -4.95e-05 | 0.0917 | -0.167 | -0.684 | -0.0137 | -0.803 | -0.616 | -0.0633 | 0.0856 | 0.0521
13 | TCACCAG | -0.0766 | -0.0518 | -0.531 | -0.922 | -0.0484 | -1.14 | -0.0564 | -0.047 | -0.0903 | -0.0488
14 | ACCAATC | -0.0336 | 0.0343 | -0.133 | 0.0341 | 0.052 | -0.711 | 0.114 | 0.12 | 0.0656 | 0.088
15 | TCTTGGA | 0.0459 | -0.137 | -0.104 | -0.26 | -0.024 | -0.577 | -0.0243 | -0.0449 | -0.0544 | -0.192
16 | CGAAATA | 0.0426 | -0.0444 | -0.277 | -1.08 | 0.0753 | -0.549 | -0.0707 | -0.06 | 0.106 | 0.0782
17 | ATGATTC | -0.0381 | -0.0285 | 0.0343 | -0.146 | -0.0568 | -0.91 | 0.0705 | -0.0965 | -0.165 | -0.0508
18 | ATGCCAC | -0.00561 | -0.0564 | -0.0476 | -0.204 | 0.094 | -0.501 | 0.0252 | 0.0756 | 0.0541 | 0.152
19 | AATCGGT | 0.0985 | 0.0261 | 0.25 | 0.843 | -0.0345 | 1.17 | -0.105 | 0.0797 | -0.0885 | 0.122
20 | TTAGTTT | 0.0681 | 0.00454 | 0.0818 | -1.95 | 0.122 | 0.133 | -0.0375 | 0.0576 | -0.0176 | -0.0161
21 | CCGCCCA | -0.239 | -0.0483 | -0.0358 | -0.693 | -0.0878 | -0.517 | -0.287 | -0.0773 | -0.139 | -0.125
22 | CGTGAAA | 0.0399 | 0.12 | 0.191 | 0.468 | 0.071 | 0.352 | 0.0474 | 0.0874 | 0.17 | 0.058
23 | GATCAAT | 0.203 | 0.249 | 0.522 | 0.906 | 0.085 | 1.5 | -0.0841 | 0.167 | 0.253 | 0.341
24 | TCCTCCC | 0.0689 | -0.0457 | 0.155 | -0.175 | 0.136 | 0.0702 | -0.0886 | -0.0976 | -0.0719 | -0.0274
25 | GGTCATG | -0.0304 | 0.0219 | 0.658 | 1.51 | -0.12 | 1.8 | 0.0236 | -0.00523 | -0.0751 | 0.114
26 | TATTCGG | -0.12 | -0.0257 | 0.504 | 1.41 | 0.00838 | 1.88 | 0.0298 | 0.0954 | -0.12 | 0.0134
27 | ACGGGTC | -0.0792 | 0.00748 | -0.0449 | -0.188 | -0.011 | -0.0886 | 0.0113 | -0.123 | -0.156 | 0.00686
28 | GCGGGTA | 0.0808 | 0.0506 | 0.55 | 0.974 | -0.037 | 1.65 | 0.0995 | 0.181 | -0.0388 | 0.0827
29 | CGCGACA | -0.0524 | -0.0323 | 0.137 | 0.562 | -0.0147 | 1.04 | 0.11 | -0.141 | -0.0426 | 0.0419
30 | GCAGTCC | -0.175 | -0.0731 | 0.135 | 0.274 | -0.133 | 0.173 | 0.00432 | -0.0797 | -0.0896 | 0.104
